# Measured values from PubChem BioAssay AID662 (National Center for Advancing Translational Sciences (NCATS), 2007).
# The whole screen tested about 71,000 compounds, of which about 1,800 (2.5%) were called active. The inconclusive results got no clear call from the source; some entries with a clear call stand among them for comparison. Calls come from the whole dose curve; as a rule, active = well fitted activation curve with a large enough effect in the signal ratio, with a control signal flat (not every such curve was filed as active); inconclusive = small, poorly fitted or top-dose-only effect, or effect the other way, or a change in a side signal; inactive = flat fitted curve, though single readings scatter; the % refers to the signal ratio. A potency beside an inconclusive call is a rough fit, not a confirmed value.
# Assay: Cell signaling CRE-BLA (Fsk stim); for activity change, negative = inhibition: % of control where 0% means no effect
# Conditions: CHO CRE-bla reporter (cAMP response element driving beta-lactamase), forskolin EC10, beta-lactamase ratio; activity change, negative = inhibition: at 38.2 µM (top of the series) unless noted
# Summary of the method: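 Modulation of forskolin signalling: compounds in titration series added with EC10 NKH 477 to CHO cells carrying a CRE-driven beta-lactamase reporter, 3 h, 37C. CCF4 FRET ratio (460/530 nm, ex 405 nm) gives %activity and AC50.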
# Potency is the fitted concentration of half-maximal effect; tags give direction and shape of the fitted curve.
SMILES,Potency,"activity change, negative = inhibition"
CN(C)c1ncnc2ccc(-c3cccc(NS(C)(=O)=O)c3)cc12,active: 10 µM,–
CCC(=O)N1CCN(c2ccccc2NC(=O)COc2ccccc2Cl)CC1,"inconclusive: 12.6 µM [rising, partial curve]",–
O=C(NC1CCCCCC1)c1nc2ncccn2n1,–,inactive: -1.36%
Cc1cnc(CNc2cc(-c3cccnc3)ncn2)cn1,–,inconclusive: 20.3%
COC(=O)c1cc(-c2cccc(OC)c2)on1,–,inactive: 4.63%
COC(=O)c1c(NC(=O)CSc2nnc(-c3cccnc3)n2Cc2ccco2)sc(C)c1C,"inconclusive: 10 µM [rising, partial curve]",–
Cc1nc(CSc2nc3[nH]ncc3c(=O)n2-c2ccccc2)cs1,"inconclusive: 20 µM [rising, single point]",–
CCCCCCCCCCCCC1CO1 (stereo not given),–,inactive: -4.82%
Cc1cc(/C=N/n2cnnc2)c(C)n1-c1ccc(OCc2ccc(F)cc2)cc1,"inconclusive: 0.126 µM [rising, full curve]",–
Cn1c2c(c(=O)n(C)c1=O)C(c1cccc(Br)c1)C1C(=O)c3ccccc3C1=N2 (stereo not given),–,inactive: -0.159%
Cc1ccccc1C(=O)NC1CC(C)(C)NC(C)(C)C1,–,inactive: -0.876%
Cc1csc(SCC(=O)Nc2ccccn2)n1,–,inconclusive: -17.5%
O=C(OCc1nnc(-c2ccccc2)o1)c1ccco1,–,inactive: -2.99%
CC(C)(C)c1ccc(S(=O)(=O)NCC(=O)N2CCN(C(=O)c3ccco3)CC2)cc1,–,inactive: -1.18%
CCCCCCNC(=O)c1c(N)n(/N=C/c2ccco2)c2nc3ccccc3nc12,"inconclusive: 12.6 µM [rising, partial curve]",–
O=C(c1ccco1)N1CCN(S(=O)(=O)c2ccc3c(c2)CCN3C(=O)C2CC2)CC1,"inconclusive: 10 µM [rising, partial curve]",–
N#Cc1ccccc1-n1c(N)c(C(=O)N2CCCC2)sc1=S,–,inconclusive: 14.3%
COc1ccc(CCCc2nnc(SCC(=O)Nc3cc(C)c(C)cc3Br)o2)cc1,–,inconclusive: 9.75%
Cc1cc(C)n2cc(CSc3nnnn3C)nc2n1,–,inactive: -8.08%
CCOc1ncccc1C(=O)Nc1ccc(Cl)cc1,"inconclusive: 12.6 µM [rising, partial curve]",–
COc1ccc(C2=CC(c3c(C)nn(-c4ccccc4)c3Cl)n3nnnc3N2)cc1OC (stereo not given),active: 2.51 µM,–
COc1ccc(OC)c(C2C(C(=O)Nc3cccnc3)=C(C)NC3=C2C(=O)CCC3)c1 (stereo not given),–,inconclusive: 4.1%

SMILES,Potency,"activity change, negative = inhibition"
CCCN1Cc2cccc(C(=O)NCCCOC(C)C)c2C1=O,"inconclusive: 12.6 µM [rising, single point]",–
Cc1ccc(-c2cc(C(F)(F)F)n3ncc(C(=O)O)c3n2)cc1,–,inactive: 0.858%
CC(C)COc1cc(=O)[nH]c(SCC(C)C)n1,active: 10 µM,–
Oc1ccccc1C1=NCCNC(C(F)(F)C(F)F)=C1,–,inconclusive: 14.6%
O=c1c(-c2ccc(F)cc2)nc2cnc(N3CCNCC3)nc2n1C1CC1,"inconclusive: 3.98 µM [rising, partial curve]",–
O=C(O)C1C2C=CC3(CN(Cc4ccccn4)C(=O)C13)O2 (stereo not given),–,inactive: 0.173%
CCOC(=O)N1CCN(C(=O)CCc2c(C)nc3c(c(C)nn3-c3ccc(C)c(C)c3)c2C)CC1,–,inconclusive: -6.06%
CCOC(=O)c1cc2c(=O)n3ccccc3nc2n(Cc2ccccc2)c1=N,–,inactive: -20.2%
COc1ccc(N2CCN(CC(=O)Nc3nc4c(s3)CC(C)CC4)CC2)cc1 (stereo not given),–,inconclusive: -25.3%
Cc1cc(=O)n2nc(N3CCC(C(=O)NCCc4ccccc4)CC3)sc2n1,–,inconclusive: 14.1%
COc1ccc(C2CC(c3ccc(OC)cc3)n3nc(N)nc3N2)cc1 (stereo not given),–,inactive: 0.572%
COC(=O)c1cc(-c2c(C)oc3cc(O)ccc3c2=O)c(C)o1,–,inactive: 8.65%
CCCc1nc2oc(C(=O)OCC)c(N)c2c2c1COC(C)(C)C2,"inconclusive: 2 µM [rising, partial curve]",–
O=C(NC1CCCCCC1)C1c2ccccc2C(=O)N1C1CC1 (stereo not given),–,inactive: 2.25%
CCOC(=O)N1CCC(Nc2c(NCCN3CCN(Cc4ccccc4)CC3)c(=O)c2=O)CC1,–,inconclusive: -3.94%
O=C(Nc1ccc2c(c1)OCO2)c1cnn2cccnc12,–,inconclusive: 32.3%
COc1ccc(C2c3c(oc4c(C)cc(C)cc4c3=O)C(=O)N2Cc2cccnc2)cc1OC (stereo not given),–,inconclusive: 13.5%
Cc1noc(C)c1C(=O)N1CCC2(CCCN(C(c3ccccc3)c3ccccc3)C2)CC1,–,inactive: -6.58%
Cc1ccc2c(c1)c(C)c(C)n2CC(O)Cn1nc(C)c(Br)c1C (stereo not given),active: 2 µM,–
Cc1cc(O)c(C=Nc2cccc(Cl)c2)c(=O)o1,"inconclusive: 12.6 µM [rising, single point]",–
COc1ccc2[nH]cc(CCNc3ncnc4ccc(-c5c(C)noc5C)cc34)c2c1,"inconclusive: 2.51 µM [rising, full curve, poor fit]",–
O=C(CN1CCN(CCC(=O)Nc2ccccc2F)CC1)Nc1ccc(Cl)cc1,"inconclusive: 0.0631 µM [rising, full curve]",–

SMILES,Potency,"activity change, negative = inhibition"
Cc1csc2nc(=O)c3ccccc3n12,–,inconclusive: 4.14%
O=C(O)c1nnsc1COCc1ccccc1,–,inactive: -6.08% [at 7.6 µM]
Nn1c(SCc2cn3ccsc3n2)nnc1-c1ccncc1,"inconclusive: 3.16 µM [falling, single point]",–
CCCn1c(C)nc2c(NCCOC)nc(C)nc21,"inconclusive: 10 µM [rising, partial curve]",–
Cc1ccc(-c2nnnn2CS(=O)(=O)c2ccccc2)cc1,–,inconclusive: 2.84%
CC/C=C\C/C=C\C/C=C\CCCCCCCC(=O)O,–,inactive: -3.82%
COCCNC(=O)C(c1cccs1)N(C(=O)Cn1nnc2ccccc21)c1ccc2c(c1)OCO2 (stereo not given),"inconclusive: 5.01 µM [falling, single point]",–
Cc1c(C(=O)COC(C)(C)C)[nH]c2ccccc12,–,inconclusive: -13.3%
CCCCC(=O)NC1(C(F)(F)F)C(=O)Nc2c1c(=O)n(C)c(=O)n2C (stereo not given),–,inactive: 6.92%
CCOc1cc(NC(=O)c2ccco2)c(OCC)cc1NC(=O)CCc1ccccc1OC,"inconclusive: 10 µM [rising, partial curve]",–
CNc1nc2sc3c(c2c(=O)n1C)CC(C)(C)SC3,active: 12.6 µM,–
COc1ccc(C(=O)NCc2nc3ccccc3[nH]2)cc1OC,–,inconclusive: 28%
Cn1c(SCc2nnc(-c3ccccc3Br)o2)nc2sc3c(c2c1=O)CCC3,"inconclusive: 6.31 µM [rising, partial curve]",–
N#Cc1nc(COc2ccc(F)cc2)oc1N1CCC(Cc2ccccc2)CC1,–,inconclusive: 17.2%
O=C(CSc1ncn[nH]1)NC1CC2CCC1C2 (stereo not given),–,inconclusive: -5.41%
COc1ccc(OC)c(CN2CCN(c3ccccc3OC)CC2)c1,"inconclusive: 0.251 µM [rising, partial curve]",–
O=C(CCN1CCN(c2ccccc2F)CC1)c1ccc(Br)cc1,–,inactive: -14.4%
Cc1cc(NC(=O)c2cccc(S(=O)(=O)N3CC(c4ccccc4)CC3=O)c2)no1 (stereo not given),–,inconclusive: -15.3%
O=C(Nc1ccccc1N1CCN(c2ccccc2)CC1)c1cccc(F)c1,–,inactive: 17.9%
CCn1c(SCC(=O)O)nnc1-c1cc2c(C)nn(-c3ccccc3)c2s1,"inconclusive: 12.6 µM [rising, single point]",–
Cc1noc(C)c1COC(=O)CCCc1nc2ccccc2s1,–,inactive: 9.43%
CCOC(=O)c1cc2c(ccn2C)n1CC(=O)N1CCN(c2ccccc2OC)CC1,–,inactive: -27.6%

SMILES,Potency,"activity change, negative = inhibition"
COC(=O)c1cccc(C(=O)Nc2ccc(C)cc2)n1,–,inconclusive: 5.94%
COc1ccc(C(=O)N2CCN(S(=O)(=O)N3CCOCC3)CC2)cc1OC,–,inactive: 0.886%
CC(=O)N(Cc1ccco1)C1(C(=O)NC2CCCCC2)CCCCC1,–,inactive: -1.53%
O=C(C1=C(O)C(=O)N(CCN2CCOCC2)C1c1ccccc1)c1cccs1 (stereo not given),"inconclusive: 25.1 µM [rising, single point]",–
O=C(C1CCCN(S(=O)(=O)c2cccc3nonc23)C1)N1CCC(Cc2ccccc2)CC1 (stereo not given),–,inactive: -1.2%
OCCN[C@@H]1c2cc(Cl)ccc2-c2c(Cl)cc(Cl)cc21,–,inactive: -4.1% [at 7.6 µM]
CC(c1nnc(SCC(=O)c2c(N)n(C)c(=O)n(C)c2=O)n1-c1ccc(Cl)cc1)N(C)C (stereo not given),–,inactive: 1.28%
CC(C)OCCCn1c(=NC(=O)c2ccncc2)c(C#N)cc2c(=O)n3ccccc3nc21,"inconclusive: 10 µM [rising, partial curve]",–
CNC(=O)C1(CC(C)C)C=CCN1C(=O)c1ccccc1 (stereo not given),–,inactive: -5.59%
O=C(c1ccco1)N1CCN(C(c2ccccc2)c2nnnn2Cc2cccs2)CC1 (stereo not given),"inconclusive: 3.16 µM [rising, single point]",–
CCc1cc2ccc(C)cc2nc1SCC(=O)N1CCN(C(=O)c2ccco2)CC1,–,inactive: 15.9%
CC(C)c1ccc(NC(=O)C2CCN(S(C)(=O)=O)CC2)cc1,–,inactive: 5.95%
CCN(CC)S(=O)(=O)c1ccc(-c2nnc(SCc3nnc(-c4ccccc4)o3)o2)cc1,"inconclusive: 5.01 µM [rising, single point]",–
COc1ccc(C2(C(=O)O)CCCC2)cc1,–,inconclusive: 10.3%
COc1ccc(CN2CCOCC2)c(C)c1C,–,inactive: -6.48%
COc1ccc(-c2ccc(-c3noc(-c4ccccc4OC)n3)c(OC)n2)cc1,"inconclusive: 5.01 µM [rising, full curve, poor fit]",–
COc1cc(Br)cc(CN2CCN(C=O)CC2)c1O,–,inconclusive: -19.6% [at 7.6 µM]
C=CCSc1nnc2c(n1)OC(c1cccnc1)Nc1ccccc1-2 (stereo not given),–,inactive: 25.8%
O=C1CC(c2ccc3c(c2)OCO3)c2cc3c(cc2N1)OCCO3 (stereo not given),–,inconclusive: 16.6%
